Measurements: PMC4336329 (PLoS ONE, 2015)
About 2,200 (0.71%) of roughly 310,000 compounds showed an effect of 50% or more. The effect is printed as a negative number. The list shows a part of the results.

molecular target: human ether-à-go-go-related gene (hERG) potassium channel (human, UniProt Q12809); experiment: primary screen, population patch clamp on CHO cells stably expressing hERG
Sequence (Q12809 whole entry, looked up): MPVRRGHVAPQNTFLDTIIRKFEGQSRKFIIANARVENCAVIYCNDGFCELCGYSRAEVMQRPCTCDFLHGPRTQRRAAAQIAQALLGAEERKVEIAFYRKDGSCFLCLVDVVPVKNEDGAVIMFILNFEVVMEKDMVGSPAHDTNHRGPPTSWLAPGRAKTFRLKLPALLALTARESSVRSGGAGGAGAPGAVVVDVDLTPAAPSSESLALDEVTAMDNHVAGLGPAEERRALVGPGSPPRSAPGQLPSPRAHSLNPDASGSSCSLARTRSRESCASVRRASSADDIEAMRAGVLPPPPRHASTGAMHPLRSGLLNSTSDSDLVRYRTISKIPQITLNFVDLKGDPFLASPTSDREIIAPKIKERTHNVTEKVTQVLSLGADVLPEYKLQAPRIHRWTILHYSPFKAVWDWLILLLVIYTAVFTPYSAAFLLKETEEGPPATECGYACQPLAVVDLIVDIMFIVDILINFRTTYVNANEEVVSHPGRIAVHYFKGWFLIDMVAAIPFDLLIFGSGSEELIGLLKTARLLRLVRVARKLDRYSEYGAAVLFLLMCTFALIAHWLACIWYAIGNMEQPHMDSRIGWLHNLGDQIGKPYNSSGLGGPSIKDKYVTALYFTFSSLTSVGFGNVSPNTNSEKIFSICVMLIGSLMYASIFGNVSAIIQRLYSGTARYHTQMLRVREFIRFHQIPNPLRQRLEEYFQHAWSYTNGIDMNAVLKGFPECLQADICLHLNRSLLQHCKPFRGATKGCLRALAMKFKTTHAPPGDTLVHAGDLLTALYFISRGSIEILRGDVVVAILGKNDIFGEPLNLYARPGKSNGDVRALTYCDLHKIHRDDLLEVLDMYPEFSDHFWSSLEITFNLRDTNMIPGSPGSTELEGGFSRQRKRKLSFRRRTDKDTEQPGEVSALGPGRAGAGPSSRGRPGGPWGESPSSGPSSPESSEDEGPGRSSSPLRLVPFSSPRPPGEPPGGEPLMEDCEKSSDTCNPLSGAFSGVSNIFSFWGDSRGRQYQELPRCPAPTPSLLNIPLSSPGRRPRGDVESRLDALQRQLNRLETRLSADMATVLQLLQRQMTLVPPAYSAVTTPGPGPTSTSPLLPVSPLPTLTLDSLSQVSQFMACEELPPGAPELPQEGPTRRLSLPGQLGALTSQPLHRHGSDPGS

| Structure (SMILES) | hERG current change (%, negative = inhibition) at 1uM |
| --- | --- |
| O=c1c2cc(NC(=S)NC3CCN(Cc4ccccc4)CC3)ccc2nc2n1CCCCC2 | -0.621% |
| CN1CCN(C(=O)/C(C#N)=C/c2ccc(F)cc2)CC1.Cl | 1.43% |
| Cc1nnc(NC2CCCCC2)[nH]c1=O | 7.65% |
| O=C(O)/C=C/c1ccc2noc(-c3ccccc3)c2c1 | 11.5% |
| CCCC(=O)Nn1cnc2c(c1=O)C1(CCCCC1)Cc1ccccc1-2 | 7.68% |
| CCOC(=O)CN(C(=O)COc1nc(-c2ccccc2)cc(C)c1C#N)c1ccccc1C | 9.34% |
| C=CCC(C(=O)OC)(C(=O)OC)c1ccc(C(F)(F)F)cc1[N+](=O)[O-] | 8.67% |
| CCOc1ccccc1NC1=C(Cl)C(=O)N(c2ccccc2)C1=O | 11% |
| COc1ccc(CCNC(=O)CCNC(=O)N2CC(=O)Nc3ccccc32)cc1 | 10.6% |
| CC(C)c1ccc(S(=O)(=O)Nc2ccc(SC(F)F)cc2)cc1 | 8.05% |
| CCOC(=O)c1sc(NC(=O)c2ccc(S(=O)(=O)N(C)C)cc2)nc1C | 10.8% |
| OCC1(Cc2ccccc2)CCCN(Cc2cnn(-c3ccccc3)c2)C1 (stereo not shown) | -27.4% |
| O=C(Cc1ccccc1)Nc1ccc(Br)c(Cl)c1 | 9.98% |
| COc1cc(-c2cc(N3C(=O)Nc4ccccc4N3O)n[nH]2)cc(OC)c1OC | 4.94% |
| O=C(CSc1nc2c(c(=O)[nH]1)CCCC2)Nc1ccc(Cl)cc1F | 10.4% |
| CC1(C)Oc2ccc(NC(=O)c3ccco3)cc2O1 | -5.51% |
| CCOC(=O)Cc1csc(NC(=O)CCc2ccccc2)n1 | 16.6% |
| Cc1cc(C(=O)NC2CC(C)(C)Cc3c2cnn3-c2cccc(F)c2)nn1C (stereo not shown) | 9.79% |
| CC(C)c1nnc(NC(=O)C2CCCN2C(=O)Nc2ccccc2[N+](=O)[O-])s1 (stereo not shown) | -5.74% |
| Cc1cccc(NC(=O)CSc2nnc(CCC(=O)Nc3ccc(C)c(Cl)c3)n2C)c1 | 1.62% |
| Cc1cc(C(=O)CN2CCC(C)CC2)c(C)n1-c1ccc(F)cc1 | 2.01% |
| O=C(COC(=O)CSc1ccc([N+](=O)[O-])cc1)NCCCc1ccccc1 | 8.4% |

| Structure (SMILES) | hERG current change (%, negative = inhibition) at 1uM |
| --- | --- |
| Cc1ccc(NC(=O)C(C)c2ccc(-c3ccccc3)c(F)c2)cc1 (stereo not shown) | 20.6% |
| CCOc1cccc2cc(C(=O)N3CCc4ccccc43)c(=O)oc12 | 4.25% |
| Cc1nc2c(-c3ccc(F)cc3)c(C)nn2c(C)c1CCC(=O)N1CCOCC1 | -27.4% |
| O=C(O/N=C1\C(=O)N(c2ccccc2)c2ccccc21)C1CC1 | 7.72% |
| O=C(C1=C(O)C(=O)N(Cc2ccco2)C1c1cccnc1)c1cc2ccccc2o1 (stereo not shown) | 16.9% |
| COc1ccc(OCC(=O)Nc2cccc(-c3nc4ccccc4[nH]3)c2)cc1 | -17.7% |
| O=C1Nc2ccccc2S/C1=C/c1cccs1 | 13.4% |
| CSc1nnc(C)c(=O)n1COC(=O)c1ccc(S(=O)(=O)N2CCOCC2)cc1 | 9.38% |
| Cc1cc(C)nc(SCCn2c(N3CCOCC3)nc3c2c(=O)[nH]c(=O)n3C)n1 | 18.2% |
| O=C(c1sc2ccccc2c1Cl)N1CCN(CCc2ccccn2)CC1 | -22.5% |
| O=C(N/N=C/c1cccnc1)c1ccc(F)cc1 | 7.02% |
| COc1ccc(NC(=O)CCC(=O)N/N=C/c2ccncc2)cc1 | 10.6% |
| CCOC(=O)Nc1ccc2c(COC(=O)CNS(=O)(=O)c3ccc(NC(C)=O)cc3)cc(=O)oc2c1 | 8.62% |
| COc1ccc(/C=C2\COc3ccccc3C2=O)cc1OC | 4.34% |
| CCCC(=O)Nc1nc2ccc(C(=O)OCC)cc2s1 | 11.8% |
| CCN(CC)S(=O)(=O)N1CCC(C(=O)NCc2ccc(C)cc2)CC1 | 4.89% |
| COc1ccc(-c2nc3ccccc3c(=O)n2CCOc2cccc(C)c2C)cc1 | 15.4% |
| COC(=O)CC/C(=N/Nc1ccc(Cl)c(Cl)c1)C(=O)OC | 11.8% |
| Cc1ccc(S(=O)(=O)N/N=C/c2ccccc2O)cc1[N+](=O)[O-] | 9.76% |
| CCc1ccc(N2CC(C(=O)OCC(=O)Nc3ccc([N+](=O)[O-])cc3)CC2=O)cc1 (stereo not shown) | -13.7% |
| O=C(c1ccc(NS(=O)(=O)c2ccc(F)cc2)cc1)N1CCC1 | 17% |
| Cc1ccc2cc(CCNC(=O)c3cccc([N+](=O)[O-])c3)c(=O)[nH]c2c1C | -1.31% |

| Structure (SMILES) | hERG current change (%, negative = inhibition) at 1uM |
| --- | --- |
| CC12CC3CC(C)(C1)CC(C(=O)NCc1ccncc1)(C3)C2 | 17.3% |
| CCOc1ccc(NC(=O)CSc2ccc(-c3cccnc3)nn2)cc1 | 10.8% |
| CC(C)OC(=O)C[N+](C)(C)CCN1C(=O)C2C(c3ccccc3)C=CC(c3ccccc3)C2C1=O.[Br-] (stereo not shown) | 7.8% |
| CCCNC(=O)N1[C@H]2CC[C@@H]1C(C(=O)OC)=C(c1ccc(S(C)(=O)=O)cc1)C2 | 5.86% |
| Cc1ccc(/C=N/NC(=S)NC2CCCCC2)o1 | 7.08% |
| CN(C)C1(c2nnnn2CCOC(=O)Nc2ccc(Cl)cc2)CCCCC1 | 1.01% |
| COc1ccc(CN2CCC(CO)(Cc3ccccc3C(F)(F)F)CC2)c(F)c1 | -53% |
| Cc1cc(C(=O)Nc2ccccc2C(=O)O)oc1C | 11% |
| CCn1c(=O)n(CC)c2cc(NC(=O)c3ccccc3Cl)ccc21 | 18% |
| Cc1cc(C)c(CN2CCC(n3nccc3NC(=O)C3CCOC3)CC2)cc1C (stereo not shown) | -0.575% |
| Cc1cccc(NC(=S)NNC(=O)c2sccc2C)c1 | 8.19% |
| Cc1c(NC(=S)NC(NC(=O)C(C)(C)C)C(Cl)(Cl)Cl)c(=O)n(-c2ccccc2)n1C (stereo not shown) | 4.81% |
| CC(C)(C)NC(=O)C(=O)NNC(=O)c1ccco1 | 11.5% |
| CC1CCN(CC(=O)Nc2nc(-c3ccccc3)cs2)CC1 | 17.6% |
| CN(Cc1cn[nH]c1-c1ccc(-c2ccccc2)cc1)CC1CCOCC1 | -16.7% |
| CCn1c(SCC(=O)NC2CC2)nnc1-c1ccncc1 | 18.1% |
| Cc1ccccc1N1CCN(CCCN2C(=O)C3CCCCN3C2=O)CC1 (stereo not shown) | 11.9% |
| COc1cc(C2C3=C(CC(C)(C)CC3=O)N(C)C3=C2C(=O)CC(C)(C)C3)ccc1O | 11.2% |
| COc1cc2c(cc1OC)C(C)N(C(=O)Cn1ncc3c1-c1cc(C)ccc1OC3)CC2 (stereo not shown) | -6.14% |
| NC(=O)CCSC(=S)N1CCOCC1 | 7.13% |
| O=C(Cn1cc(C(F)(F)F)ccc1=O)N/N=C/c1ccccc1 | 15.1% |
| CCn1c2ccccc2c2cc(NC(=O)CSc3nnc(-c4cccc(OC)c4)n3N)ccc21 | -0.458% |

| Structure (SMILES) | hERG current change (%, negative = inhibition) at 1uM |
| --- | --- |
| Cc1cc(C)c2cc(CN(Cc3ccco3)C(=S)NCC3CCCO3)c(=O)[nH]c2c1 (stereo not shown) | -1.08% |
| Cc1nc2ccccn2c1C(=O)Nc1ccc(Cl)cc1 | 14% |
| CC(=O)Nc1ccc(Nc2cc(N(C)C)c3nonc3c2[N+](=O)[O-])cc1 | 10.6% |
| Cc1cc(C)c(S(=O)(=O)NCc2cccnc2)cc1C | 14.8% |
| CN(C)S(=O)(=O)c1cccc(-c2nn(-c3ccccc3)cc2/C=C2\SC(=S)N(CC(=O)O)C2=O)c1 | 6.66% |
| Cc1ccnc(NC(=O)c2cccc(NC(=O)COc3ccccc3)c2)c1 | -1.04% |
| O=C(CSc1nnc(-c2ccccc2O)n1-c1ccccc1)Nc1cccc(C(=O)O)c1 | 14.7% |
| COc1cc(C2C(C#N)=C(N)Oc3n[nH]c(C)c32)cc2c1OCO2 (stereo not shown) | -3.12% |
| O=C(CN1CC(c2ccccc2)CC1=O)Nc1ccccc1 (stereo not shown) | 10.2% |
| Cl.c1ccc(CNc2c3c(nc4ccccc24)CCC3)cc1 | -75.8% |
| Cc1ccc(OC(=O)c2ccncc2)c(C)c1 | 12.6% |
| CCCCCOc1ccc(CSc2ncn[nH]2)cc1 | 3.11% |
| CS(=O)(=O)Cc1ccc(C(=O)NC(c2ccccc2)c2ccccc2)cc1 | 12.3% |
| Cc1cc(C)cc(NC(=O)CS(=O)(=O)c2cccc3nsnc23)c1 | 4.74% |
| CCn1ncc(C2=NOC(C(=O)N3CCN(c4ccccc4)CC3)C2)c1C (stereo not shown) | -4.01% |
| CC(=O)N[C@@H](Cc1c[nH]c2ccccc12)C(=O)NC1CC1 | 10.1% |
| O=C(CCNC(=O)C1CCN(S(=O)(=O)c2ccc(F)cc2)CC1)NCCc1cccc(F)c1 | 11.7% |
| CC(C)CC1NC(=O)N(CC(=O)N2c3ccccc3NC(=O)C2(C)C)C1=O (stereo not shown) | 10% |
| COc1ccc(C(=O)NNC(=S)NC(=O)c2ccc(Br)o2)cc1OC | 6.58% |
| C=CCn1c(C)cc(C(=O)Cn2ncc(Cl)c(Cl)c2=O)c1C | 0.203% |
| CCCCNC(=O)c1cc2c(=O)n3cccc(C)c3nc2n(Cc2ccccc2)c1=N | -80.7% |
| COc1cccc(NC(=O)Cn2c(=O)n(C)c(=O)c3sc4c(c32)COC(C)(C)C4)c1 | 6.97% |
